Results: ChEMBL document CHEMBL4888484, “Replenishing the malaria drug discovery pipeline: Screening and hit evaluation of the MMV Hit Generation Library 1 (HGL1) against asexual blood stage Plasmodium falciparum ,using a nano luciferase reporter read-out” (2022)
Screen size: about 150,000 compounds; about 540 (0.36%) showed an effect of 50% or more. Some of the results follow.

Each compound was assayed on Plasmodium falciparum (assay: Primary screen in NF54 nanoGlo assay, in single point, at 2uM, 72h; a lower Z score goes with more inhibition). Conditions: timepoint 72 hour.
Assay type: functional, Erythrocyte

Compound | % Inhibition | Z score
C[C@@H](NCc1ccccn1)c1cccc(Cl)c1 | -15% | 1.89
CCc1nc(C)cc(N2CCN(c3nccs3)CC2)n1 | -11% | 0.94
CCOc1ccccc1-c1cc(NC(=O)Cc2noc3ccccc23)on1 | 1% | -0.26
CN1CCN(c2ccc(N3CCN(C(=O)c4ccco4)CC3)nn2)CC1 | -20% | 3.13
Cc1cc(Cl)c2ncc(C#N)c(NCCOCCO)c2c1 | -9% | 0.78
OC[C@H]1CN(c2cc(C(F)(F)F)ccn2)C[C@H]1CN1CCCCC1 | 5% | -1.01
O=C(c1ccncc1)N(Cc1cc2ccccc2nc1O)C1CCCCC1 | -14% | 1.49
Cc1cc(C2CCC2)nc(NCCn2cccn2)n1 | 3% | -0.37
CN(CC[C@H]1CN(C(=O)Cc2cccs2)CC[C@H]1CC(=O)O)c1ccccc1 | -7% | 1.17
COCC(=O)N[C@H]1[C@H](c2ccccc2)N(C(=O)C2CCC2)CC[C@@]1(C)O | -10% | 2.01
Cc1ccccc1N(C(=O)c1ccco1)c1nc2ccccc2s1 | 9% | -1.15
Cc1nocc1S(=O)(=O)N1CCC[C@H]1c1ccnn1C | -11% | 2
N#Cc1ccc(-n2nc([C@H]3CCOC3)nc2-c2ccoc2)cc1 | -9% | 1.1
CC(=O)N1CCN(C(=O)C[C@H]2COCCN2C/C=C/c2ccccc2)CC1 | -13% | 1.74
Cc1noc(C)c1C(=O)N[C@H]1CCc2n[nH]c(=O)n2CC1 | -10% | 1.51
O=C(c1cc(Br)c2c(c1)OCCO2)N1CC(=O)N(C2CC2)C1 | -13% | 2.64
c1nc(N2CCC(n3cc(CC4CCCCC4)nn3)CC2)c2nc[nH]c2n1 | 1% | -0.13
Cc1cnc(C(=O)Nc2cnns2)cn1 | -11% | 1.66
CCN(C(=O)c1cn(C(C)(C)C)nn1)c1cccnc1C | 4% | -0.65
CC=C(C)C(=O)NC1CCCC(NC(=O)OC(C)(C)C)C1 (stereo not given) | -5% | 0.6
Cc1ccc(C(=O)NC2CCC(CC3CCC(NC(=O)c4ccc(C)o4)CC3)CC2)o1 (stereo not given) | -13% | 1.64
C[C@]1(c2ccccc2)CCC(=O)N(CCC2(O)CCCC2)C1 | -9% | 1.56

Compound | % Inhibition | Z score
CN1CCCC[C@H](N(C)Cc2noc3c2COCC3)C1=O | -11% | 1.33
Cc1ccc(N2C(=O)C(=O)N(Cc3cc(C)no3)C2=O)c(C)c1 | -2% | 0.36
COc1ccc(CNC(=O)Cc2nnc(-c3cccc(Br)c3)o2)c(OC)c1 | -8% | 0.88
Cn1ccc(C2CCN(CC(=O)NC(C)(C)C)CC2)n1 | -8% | 1.01
O=C(c1ccoc1)N1CC[C@H](Oc2cccc(Cl)c2)C1 | -19% | 1.88
C=CCN(CC=C)[C@H]1CCC(=O)N(CCOc2ccc(F)cc2)CC1 | 4% | -0.56
CCO[C@@H](c1ccccc1)c1ccc2c(c1)CN(Cc1cccnc1)CCO2 | -8% | 1.03
C[C@@H](Cn1cccn1)NC(=O)c1ccc2c(c1)OCO2 | 1% | -0.1
CCOC(=O)NCCC(=O)N1CCC[C@H](C)C1 | 7% | -0.74
Cc1ccc(S(=O)(=O)NC[C@H]2CCCO2)s1 | -17% | 1.87
Cc1nn(C)c2nc(N[C@H]3CCCN(C(=O)c4cccs4)C3)sc12 | -3% | 0.69
CC(=O)c1ccc(OC(C)C(=O)NC2CCCC(C)C2C)cc1F (stereo not given) | -15% | 1.61
O=C1C(N2C(=O)[C@@H]3CCCN3C2=O)CCN1C1CC1 (stereo not given in full) | 2% | -0.33
Cc1nc2n(n1)CC(NC1CCCC(C(F)(F)F)C1)CC2 (stereo not given) | -16% | 3.03
c1ccc(CCN2CCC[C@@]3(CCN(Cc4nc5ccccc5[nH]4)C3)C2)cc1 | 0% | -0.02
CC1CCCC2(C1)NC(=O)N(Cc1nnc(C(C)C)s1)C2=O (stereo not given) | 16% | -1.99
Cn1c(=O)sc2cc(NC(=O)C(C)(C)C)ccc21 | -8% | 1.05
CC1CCN(CC2CCCN(C(=O)NC(C)c3ccncc3)C2)CC1 (stereo not given) | -3% | 0.46
O=C1CCCC1C1CCCN1C(=O)c1cnc(-c2ccccc2)nc1 (stereo not given) | -21% | 4.05
O=C([C@H]1CC12CCN(Cc1ccc(N3CCCC3)cc1)CC2)N1CCN(Cc2ccccc2)CC1 | -7% | 1.01
CC(=O)c1c(C)nn(CCC(=O)N2C[C@@H]3NC(=O)CN(C)C(=O)c4ccc(C)c(c4)Oc4cccc(c4)CO[C@H]3C2)c1C | -2% | 0.34
Cn1cc(S(=O)(=O)NC[C@H](OCCO)c2ccsc2)cn1 | -18% | 2.07

Compound | % Inhibition | Z score
Cc1nocc1C(=O)N[C@@](C)(CO)c1cccc(Br)c1 | -14% | 1.62
Fc1ccc(Oc2nc3ccccc3nc2Oc2ccc(F)cc2F)c(F)c1 | -2% | 0.23
CCOCCC(=O)Nc1nnc(C(CC)CC)s1 | -8% | 1.22
CC(C)c1ccc(CCCNc2cncc(C(=O)N(C)C)n2)cc1 | -10% | 2.03
O=C(O)C[C@H](NC(=O)C1CCCCCC1)C1CC1 | -10% | 1.63
CO[C@H]1COC[C@H]1NC(=O)NCc1nc(C(C)(C)C)co1 | -3% | 0.6
Cc1ccc(N2CCCN(Cc3ccc(C(F)(F)F)cc3)C2=O)c(NC(=O)C2CCC2)c1 | -1% | 0.17
Cc1ccnc(NS(=O)(=O)N2CCCCC2)c1 | -43% | 5.04
Cc1noc(C)c1CC(=O)N(c1ccccc1)[C@H]1CCOC1 | -2% | 0.27
COc1ccc(Cl)cc1C(=O)NC1CC2C(=O)Nc3ccccc3N2C1 (stereo not given) | -13% | 2.45
Cc1ccc(CCC(=O)N2CC[C@H]3[C@H](CCC(=O)N3Cc3cccc(F)c3)C2)cc1 | 14% | -1.91
CCC(c1ccncc1)N(CC)C(=O)C1CCN(C)C(=O)C1 (stereo not given) | -6% | 0.55
CCC1CN(C(=O)Nc2ccn(C)n2)C(CC)CN1CC(C)(C)O (stereo not given) | 3% | -0.43
CCC/C=C/c1ccc(Cn2ccnc2)cn1 | -9% | 1.46
CCOC(=O)[C@H]1CCCN(C(=O)CCc2nc3ccccc3s2)C1 | -21% | 2.98
C[C@@H](c1nc2ccccc2c(=O)[nH]1)N1CCCN(c2nc3ccccc3[nH]2)CC1 | -6% | 0.72
CC(C)n1nccc1NC(=O)CN1CCC[C@H]1c1nc(-c2ccccc2C(F)(F)F)c[nH]1 | -6% | 0.97
CC(C)(C)C(=O)NCc1cccc(OCC(F)F)c1 | 6% | -0.91
Cc1cc(C(=O)N(CC(=O)N2CCOCC2)Cc2ccccc2)no1 | 15% | -2.29
COCc1nc(C)cc(N2CC(C)(O)C2)n1 | 0% | 0.08
O=C(C1CCCC1)N1C[C@@H]2[C@@](C(F)(F)F)(CCCS2(=O)=O)C1 | -8% | 1.52
O=S1(=O)CCCC(NC(c2ccccc2)C2CCCc3ccccc32)C1 (stereo not given) | 3% | -0.26

Compound | % Inhibition | Z score
COc1cc(CNS(=O)(=O)c2ccc3c(c2)C(C)(C)CN3C(=O)C(C)C)cc(OC)c1OC | 8% | -1.55
O=C(O)c1ccc(CNC2CCCCCCC2)cc1 | -14% | 1.67
O=C(c1cnn2cccnc12)N1CCC[C@@]2(C1)OCc1ccccc12 | -6% | 0.96
O=C1N[C@H](c2ccc(O)cc2)C(=O)N[C@H]1c1ccccc1 | -2% | 0.26
CN(C)c1nc2ncn3c(=O)n(CC(=O)Nc4ccc5c(c4)OCCO5)nc3c2s1 | -21% | 2.03
Cc1nc(N2CCCCC2)nc2c1CCC2 | -8% | 0.91
O=C1CN(S(=O)(=O)c2cccc3nsnc23)CCN1c1ncc(F)cn1 | 17% | -2.13
Cn1c2cn(-c3ccc(O)cc3)c(-c3ccc(Cl)cc3)c2c(=O)n1-c1ccccc1 | 1% | -0.12
Clc1ccc2c(c1)CC[C@@H]2NCc1cccnc1N1CCOCC1 | -18% | 1.63
OC1CC(C2CCCCC2)N(c2ncnc3nc[nH]c23)C1 (stereo not given) | 3% | -0.42
O=C(NCc1ccccn1)c1nc(-c2cnccn2)no1 | -1% | 0.13
COc1ccccc1-c1ncc(CN(C)CCC2(O)CCCC2)cn1 | -2% | 0.27
O=C(NCc1ccncc1)[C@]1(F)CCCN(Cc2ccc3c(c2)CCO3)C1 | -26% | 2.31
CC(C)c1cc(C(=O)N2CCC3(CC2)Cc2cn(nn2)CCCOc2ccc(cc2)CCNC3=O)no1 | -8% | 1.01
O=C(c1cc(COc2ccc3ncccc3c2)on1)N1C[C@H]2CCC[C@@H]1C2 | -6% | 1.1
O=C(N[C@@H]1C[C@H]1c1cccc(Cl)c1)C1CCCO1 (stereo not given in full) | -13% | 1.27
Cc1cc(NC(=O)N2CCC[C@H]2c2ccc3c(c2)OCCO3)no1 | 14% | -1.75
O=C(C[C@@H]1NC(=O)N(Cc2ccccc2Cl)C1=O)N1CCOC(c2ccccc2)C1 (stereo not given in full) | 5% | -0.85
Cc1cc2n(n1)CCCN2CC(=O)N1CCN(c2cccc(Cl)c2)CC1 | -9% | 1.46
